In PubChem BioAssay AID1345083 (National Center for Advancing Translational Sciences (NCATS), 2018):
Hit rate of the full screen: of about 94,000 compounds, about 6,200 (6.6%) were called active. The shares of active, inactive and inconclusive entries below differ from those in the screen. The call rests on the fitted dose curve; in most records, active means well fitted inhibition curve with a large enough effect; inconclusive means small, poorly fitted or top-dose-only effect; inactive means flat fitted curve, though single readings scatter. Potencies beside an inconclusive call are fits to weak or partial responses and may not hold up.

Test: Cytotoxic Profiling in HEK 293 Cell Line of Diverse Libraries Using Quantitative High-Throughput Screening; further: nearly all actives have a fitted effect of over 60% in size
Conditions: HEK 293 viability, ATP luminescence (CellTiter-Glo), 48-72 h; activity change, negative = cytotoxicity: at 115 µM (top of the series) unless noted; series mostly up to 115 µM
Summary of the method: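 HEK 293 cells at 250 cells/well were exposed to compounds by pintool transfer for 48 or 72 hr at 37 degree Celsius, 5% CO2. Viability was read as ATP-coupled luminescence with CellTiter-Glo after 10 min at room temperature.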
On the % scale 0 is the no-effect control and ±100 the full control effect; potency means the concentration at half of the fitted maximal effect; tags describe the fitted curve by direction and shape.

Compound | Potency | activity change, negative = cytotoxicity | outcome
O=S(=O)(c1ccccc1Cl)N1CC(c2nc(Cc3ccccc3)no2)C1 | inconclusive: 56.2 µM [inhibitor, partial curve, poor fit] |  | 
O=C(c1ccncc1)N1CCCN(Cc2cccnc2)c2ccccc21 | inconclusive: 50.1 µM [inhibitor, partial curve, poor fit] |  | 
COc1cccc(CN2CCCCCCNC(=O)[C@@H]3CCC[C@@H]32)c1 | inconclusive: 100 µM [inhibitor, single point] |  | 
CC1(C)[C@H](Cc2cc(-c3ccccc3)on2)C[C@@H]1NCC1CC1 | active: 100 µM |  | 
CC(=O)Nc1ccc2c(c1)CCC(=O)N2CC(C)C |  | inactive: 3.25% | 
CN1CCNc2nc(CNc3cccc(F)c3)n(Cc3ccccc3)c2C1=O | inconclusive: 89.1 µM [inhibitor, partial curve, poor fit] |  | 
COCC1CN(Cc2ccc(Cl)c(F)c2)CC12CCNCC2 (stereo not drawn) | inconclusive: 56.2 µM [inhibitor, partial curve, poor fit] |  | 
Cc1ccc(Cn2ccn3nc4c(c3c2=O)CCCC4)cc1 | inconclusive: 44.7 µM [inhibitor, partial curve, poor fit] |  | 
COc1ccc2[nH]c3c(c2c1)CCNC31CCN(C(=O)Cc2cccnc2)CC1 |  | inactive: -10.9% | 
CC(=O)Nc1ccc(NC(=O)c2cc3n(n2)CC(c2ccc(Br)cc2)OC3)cc1 (stereo not drawn) | inconclusive: 44.7 µM [inhibitor, partial curve, poor fit] |  | 
O=C(Cc1cccs1)Nc1ccc2c(c1)CN(Cc1ccccc1F)C(=O)CO2 | inconclusive: 39.8 µM [inhibitor, partial curve, poor fit] |  | 
Cn1ncc2c(C(=O)NCc3ccc(C(F)(F)F)cc3)cc(-c3ccc(Cl)cc3Cl)nc21 | inconclusive: 25.1 µM [inhibitor, full curve, poor fit] |  | 
Cc1cc2nc3n(c(=O)c2n1CC(=O)NCc1ccc(F)cc1)CCCC3 | inconclusive: 8.91 µM [inhibitor, full curve] |  | 
O=C(Nc1ccccc1)O[C@@H]1CO[C@H]2[C@@H]1OC[C@@H]2NC(=O)c1ccc(C(F)(F)F)cc1 | inconclusive: 44.7 µM [inhibitor, partial curve, poor fit] |  | 
O=[S+]([O-])(c1cccs1)N1CCN(Cc2ccccc2-c2cccnc2)CC1 | inconclusive: 56.2 µM [inhibitor, partial curve, poor fit] |  | 
Cc1nn(-c2ccc(C(C)(C)C)cc2)c(C)c1[C@@H]1C=C[C@@H](NC(=O)NC(C)C)C1 | active: 44.7 µM |  | 
COc1cccc(-c2ccc(CN3CCCC(NC(C)=O)C3)cc2)c1 (stereo not drawn) | inconclusive: 31.6 µM [inhibitor, partial curve, poor fit] |  | 
CC1=C[C@@H](CNS(C)(=O)=O)[C@H](C(C)C)C[C@H]1Cc1nnc(-c2ccncc2)o1 | inconclusive: 100 µM [inhibitor, partial curve] |  | 
Cc1nn(-c2ccccc2)c2c1C(C1CC1)N(C1CN([S+](=O)([O-])c3cccs3)C1)C2=O (stereo not drawn) |  | inactive: -2.47% | 
C#CCNC(=O)[C@@H]1Cc2cn(Cc3cc(C)on3)c3cccc(c23)[C@H](CC(C)C)N1 | inconclusive: 89.1 µM [inhibitor, partial curve, poor fit] |  | 
CCc1noc(-c2cn(C3CCN(C(=O)c4cc(C)ccc4C)CC3)nn2)n1 | inconclusive: 89.1 µM [inhibitor, single point] |  | 

Compound | Potency | activity change, negative = cytotoxicity | outcome
Cc1ccc(-c2cc(C3CCN(C(=O)c4ccncc4)CC3)[nH]n2)cc1 | inconclusive: 79.4 µM [inhibitor, partial curve, poor fit] |  | 
CN1C(=O)c2cccn2CC1C(=O)O (stereo not drawn) |  |  | inactive
C=CCc1ccccc1OCCN(C)Cc1nc(C)ccc1O | inconclusive: 50.1 µM [inhibitor, partial curve, poor fit] |  | 
COc1cccc(CNC(=O)c2cc(-c3ccc(C)cc3)nc3c2cnn3C)c1 | inconclusive: 35.5 µM [inhibitor, full curve] |  | 
Cc1ccc([S+](=O)([O-])NC2CCN(CCn3nc4n(c3=O)CCCC4)C2)cc1 (stereo not drawn) |  | inactive: -19.2% | 
Cc1ccc(N2CCN(C(=O)c3ccc4c(c3)N(C)C3CCCCN3C4=O)CC2)cc1 (stereo not drawn) | inconclusive: 50.1 µM [inhibitor, partial curve, poor fit] |  | 
O=C(C1CCCN(Cc2cccc(-c3ccsc3)c2)C1)N1CCN(c2ncccn2)CC1 (stereo not drawn) | active: 31.6 µM |  | 
O=C(NC1CCCN(c2cc(-c3ccc(F)cc3)[nH]n2)C1)c1nccc2ccccc12 (stereo not drawn) | inconclusive: 56.2 µM [inhibitor, partial curve, poor fit] |  | 
COc1cccc(CN2CCNc3cnc(OCc4cccnc4)cc3C2)c1 | inconclusive: 100 µM [inhibitor, partial curve] |  | 
Cn1cc2c3c(cccc31)CN(C(=O)COc1ccc(F)cc1)CC2 | inconclusive: 89.1 µM [inhibitor, single point] |  | 
O=C(NC1CCCc2nc(-c3cccnc3)ncc21)c1cn[nH]c1-n1cnnn1 (stereo not drawn) |  | inactive: -19% | 
CNC(=O)N1CCC(C2CCN(C3CCN(CCc4ccccc4)CC3)C2)CC1 (stereo not drawn) | inconclusive: 89.1 µM [inhibitor, single point] |  | 
CC1(C(=O)NC2CCOCC2)CCCc2cnc(Nc3ccccc3)nc21 (stereo not drawn) | inconclusive: 126 µM [inhibitor, single point] |  | 
COCCc1noc(-c2ccccc2OC2CN(C(=O)Cc3c[nH]c4ccccc34)C2)n1 | inconclusive: 89.1 µM [inhibitor, single point] |  | 
O=C(Cc1ccccc1Cl)NC1CCN(c2cc(-c3ccc(F)cc3)[nH]n2)C1 (stereo not drawn) | inconclusive: 28.2 µM [inhibitor, partial curve, poor fit] |  | 
CCn1nccc1C(=O)N1CCC2(CC1)NC(=O)N(c1ccccc1)N2 | inconclusive: 12.6 µM [inhibitor, full curve, poor fit] |  | 
CC(=O)NCCNC(=O)c1ccc(-c2cncnc2)cc1 |  | inactive: -8.3% [at 172 µM] | 
Cc1nc(-c2c3n(c(=O)n(Cc4cc(F)cc(F)c4)c2=O)CCCCC3)no1 | inconclusive: 25.1 µM [inhibitor, single point] |  | 
Cc1c(C(=O)N(Cc2cccc(OCC3CCOC3)c2)Cc2ccccn2)[nH]c2ccc(Cl)cc12 (stereo not drawn) | inconclusive: 79.4 µM [inhibitor, single point] |  | 
CC(C)(C)c1ccc(C(=O)N2C[C@@H](CO)[C@H](c3ccccn3)C2)cc1 | inconclusive: 50.1 µM [inhibitor, partial curve, poor fit] |  | 
COc1ccc(-c2noc([C@@H]3Cc4nc[nH]c4CN3Cc3cccs3)n2)cc1 | inconclusive: 79.4 µM [inhibitor, partial curve, poor fit] |  | 

Compound | Potency | activity change, negative = cytotoxicity | outcome
COCC(=O)NC[C@H]1O[C@@H](CO)[C@@H](O)[C@H]1N1CCC(C)CC1 |  | inactive: -2.51% [at 172 µM] | 
COc1ccc2c(c1)CN(Cc1ccccc1)C(=O)CCN2C(=O)C1CCC1 | inconclusive: 50.1 µM [inhibitor, partial curve, poor fit] |  | 
Nc1ncccc1CNC(=O)[C@H]1CCC[C@H](O)C1 | inconclusive: 63.1 µM [inhibitor, partial curve, poor fit] |  | 
O=C1CCN(C(=O)[C@@H]2CCCN2S(=O)(=O)c2ccccc2)CCCCCCN1 |  | inactive: -9.18% | 
COc1ccc(-c2nc(C)nc3c2CCN([S+](=O)([O-])c2c(C)noc2C)CC3)cc1 | inconclusive: 79.4 µM [inhibitor, partial curve, poor fit] |  | 
COc1ccc(-c2cc(C(=O)NCc3ccccn3)c3cnn(C)c3n2)cc1 | inconclusive: 50.1 µM [inhibitor, partial curve, poor fit] |  | 
COCCN1C(=O)c2cccn2CC1CNC(=O)c1ccc(C)nc1 (stereo not drawn) |  | inactive: 3.56% | 
O=C(c1ccccc1Cl)N1CCN(CCn2nc3n(c2=O)CCCC3)CC1 |  |  | inactive
C[S+](=O)([O-])N1CCC(Cn2ccc3c(N4CCOCC4)nc(-c4cccc5[nH]ncc45)cc32)CC1 | inconclusive: 31.6 µM [inhibitor, full curve] |  | 
O=C(NC1CCN(c2cc(-c3ccc(F)cc3)[nH]n2)C1)c1ccc(Br)cc1 (stereo not drawn) | inconclusive: 89.1 µM [inhibitor, single point] |  | 
COc1ccc(C(=O)Nc2cccc(-c3nnc4n3CCCC4)c2)cc1OC | inconclusive: 100 µM [inhibitor, single point] |  | 
COc1ccc(NC(=O)c2nc(C(O)c3ccccc3)oc2C)cn1 (stereo not drawn) | inconclusive: 112 µM [inhibitor, single point] |  | 
CC1(C(=O)NCCc2ccc(F)cc2)CCOCC1 |  | inactive: 3.85% [at 172 µM] | 
COc1cccc(-c2ccc(CN3C4CCC3CN(C(=O)c3ccncc3)C4)cc2)c1 | inconclusive: 22.4 µM [inhibitor, partial curve] |  | 
CN(C)CCNCc1ccc(-c2ccccc2)o1 |  | inactive: 10.9% | 
Cc1cc(Cl)ccc1OCC(=O)N1CCC2(CC1)CC(O)CCO2 (stereo not drawn) |  | inactive: -25.4% | 
COCCn1ncc(N2CCC(NC(=O)c3ccc(OC)c(F)c3)CC2)cc1=O |  | inactive: -6.44% | 
O=C(O)c1[nH]ncc1CN1CCc2[nH]nc(-c3ccc(-c4ccccc4)cc3)c2C1 |  | inactive: -14.3% | 
O=c1c2c(CO)c(-c3ccccc3)nn2ccn1CCOc1ccccc1 | inconclusive: 70.8 µM [inhibitor, partial curve, poor fit] |  | 
O=C(c1cccc(F)c1)N1CCC(Oc2ccccc2)C1 (stereo not drawn) | inconclusive: 89.1 µM [inhibitor, single point] |  | 
CCC(C)NC(=O)C1COC2(CCN(C(=O)c3cccc(OC)c3)CC2)N1C(=O)c1ccccc1C (stereo not drawn) | inconclusive: 31.6 µM [inhibitor, partial curve, poor fit] |  | 
